Test results: PubChem BioAssay AID504332 (National Center for Advancing Translational Sciences (NCATS), 2011)
Among all 350,000 compounds or so, about 31,000 (8.9%) were called active. The inconclusive results got no clear call from the source; some entries with a clear call stand among them for comparison. Calls follow the shape of the dose curve; as a rule, active = well fitted inhibition curve with a large enough effect; inconclusive = small, poorly fitted or top-dose-only effect; inactive = no such curve, though single readings can be large or run the other way. Where the call is inconclusive, the potency comes from a doubtful curve fit.

The molecules below were run against Histone-lysine N-methyltransferase EHMT2 (Homo sapiens) (UniProt Q96KQ7) (assay: qHTS Assay for Inhibitors of Histone Lysine Methyltransferase G9a). Conditions: G9a H3K9 monomethylation, AlphaScreen, 2 h; activity, negative = inhibition: at 59 µM (top of the series) unless noted.
Sequence of UniProt Q96KQ7 (Q96KQ7 whole entry, looked up): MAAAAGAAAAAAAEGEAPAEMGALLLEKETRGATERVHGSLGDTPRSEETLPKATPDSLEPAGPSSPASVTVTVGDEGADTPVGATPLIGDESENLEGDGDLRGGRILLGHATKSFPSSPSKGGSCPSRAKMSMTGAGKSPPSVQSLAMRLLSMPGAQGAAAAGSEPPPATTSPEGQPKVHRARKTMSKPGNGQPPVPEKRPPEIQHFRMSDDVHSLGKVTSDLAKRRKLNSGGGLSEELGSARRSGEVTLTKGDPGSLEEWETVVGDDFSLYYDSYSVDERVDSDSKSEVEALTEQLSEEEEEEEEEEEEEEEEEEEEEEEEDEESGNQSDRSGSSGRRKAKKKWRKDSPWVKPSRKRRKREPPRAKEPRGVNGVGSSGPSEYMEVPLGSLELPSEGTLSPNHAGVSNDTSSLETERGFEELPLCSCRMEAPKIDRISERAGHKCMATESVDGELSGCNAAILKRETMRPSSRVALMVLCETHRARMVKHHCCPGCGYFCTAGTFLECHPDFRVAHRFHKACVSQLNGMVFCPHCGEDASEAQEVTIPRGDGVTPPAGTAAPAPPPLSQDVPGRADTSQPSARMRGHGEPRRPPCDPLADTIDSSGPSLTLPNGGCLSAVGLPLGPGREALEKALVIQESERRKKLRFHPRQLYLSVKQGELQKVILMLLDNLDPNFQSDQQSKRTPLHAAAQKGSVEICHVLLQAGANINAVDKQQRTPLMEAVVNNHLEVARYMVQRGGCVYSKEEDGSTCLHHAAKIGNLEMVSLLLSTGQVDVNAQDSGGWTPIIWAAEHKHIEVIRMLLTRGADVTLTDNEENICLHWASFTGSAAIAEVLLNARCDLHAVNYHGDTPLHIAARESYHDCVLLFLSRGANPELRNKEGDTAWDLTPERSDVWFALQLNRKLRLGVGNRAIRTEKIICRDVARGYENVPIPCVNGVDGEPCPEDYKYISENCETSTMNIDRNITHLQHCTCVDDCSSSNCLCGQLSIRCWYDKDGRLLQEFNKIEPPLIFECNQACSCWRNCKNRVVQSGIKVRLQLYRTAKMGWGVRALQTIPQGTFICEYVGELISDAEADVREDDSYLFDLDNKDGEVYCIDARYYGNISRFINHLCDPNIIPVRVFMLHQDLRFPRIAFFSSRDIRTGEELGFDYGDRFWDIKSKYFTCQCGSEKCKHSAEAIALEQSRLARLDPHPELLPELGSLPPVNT
Method in brief: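 Chemiluminescent proximity detection of H3K9 monomethylation, read after 10 min bead incubation in the dark. Reaction: 20 nM G9a, 500 nM biotin-H3K9 peptide, 20 uM SAM cofactor, 2 h, room temperature, following 15 min enzyme-compound preincubation.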
% is scaled to controls: 0 for no effect and ±100 for the full control effect; potency is read from the fitted curve at half-maximal effect; tags tell the direction and shape of the fitted curve.
Also: nearly all actives have a fitted effect of over 75% in size.

Question: With S=C(NCc1ccc2c(c1)OCO2)Nc1ccc2nsnc2c1 as the molecule, how does the Potency read?
Answer: inconclusive: 39.8 µM [inhibitor, partial curve, poor fit]

Question: How did the Potency turn out when CC(C)SC1=NC(C)(C)C=C(/C=C/c2c(Cl)cccc2Cl)N1 was run?
Answer: active: 44.7 µM

Question: For C=CCn1c(N)c(C(=O)Nc2ccc(C)cc2)sc1=S, which “activity, negative = inhibition” value is on record?
Answer: inactive: -4.05% [at 102 µM]

Question: With Cc1c(C(=O)N2CCCCCC2)c(S(=O)(=O)Nc2ccc(OC(F)(F)F)cc2)c(C)n1C as the molecule, how does the “activity, negative = inhibition” value read?
Answer: inactive: -23%

Question: For CC(=O)C1=C(C)NC(SCC(=O)c2ccccc2)=C(C#N)C1c1ccco1 (stereo unspecified), which Potency is on record?
Answer: inconclusive: 31.6 µM [inhibitor, single point]

Question: For O=[N+]([O-])c1cccc(/C([O-])=C(/C(=S)Nc2ccccc2F)[n+]2ccccc2)c1, which Potency is on record?
Answer: active: 28.2 µM

Question: Which Potency does the source give for CCC(CC)NC(=O)CSc1ccc(S(=O)(=O)N2CCOCC2)cn1 here?
Answer: inconclusive: 35.5 µM [inhibitor, single point]

Question: Which “activity, negative = inhibition” value does the source give for COc1ccc(S(=O)(=O)N2CCC(C(=O)Oc3cccc(C)c3)CC2)cc1OC here?
Answer: inactive: 1.88% [at 102 µM]

Question: How did the Potency turn out when COc1ccc(CCNC(=O)c2cc(-c3ccccc3)c(N3CCOCC3)s2)c(OC)c1OC was run?
Answer: inconclusive: 70.8 µM [inhibitor, single point]

Question: Which “activity, negative = inhibition” value does the source give for Cc1ccnc(NC(=O)CN2C(=O)c3ccccc3C2=O)c1 here?
Answer: inactive: -0.126%

Question: CN(Cc1ccccc1)C(=O)c1ccccc1Br was tested. Which “activity, negative = inhibition” value did it give?
Answer: inactive: -1.11%

Question: Which “activity, negative = inhibition” value does the source give for COc1ccccc1NC(=O)CSc1nn2c(=O)c(C)nnc2s1 here?
Answer: inactive: 50.7% [at 102 µM]

Question: For Cc1cc(OCC[N+]2(C)CCCCC2)nc2ccccc12, which Potency is on record?
Answer: inconclusive: 2 µM [inhibitor, partial curve, poor fit]

Question: For Cc1ccccc1-c1nc(CS(=O)CC(=O)NCCCN(C)c2ccccc2)c(C)o1 (stereo unspecified), which activity, negative = inhibition is on record?
Answer: inactive: 15.5% [at 0.501 µM]

Question: Which Potency does the source give for CSc1ccc(/C=N/NC(=O)c2cccc(Cl)c2)cc1 here?
Answer: inconclusive: 89.1 µM [inhibitor, single point]

Question: For Nc1ccc(Br)cc1C(NCC(=O)O)c1ccccc1 (stereo unspecified), which Potency is on record?
Answer: inconclusive: 44.7 µM [inhibitor, partial curve]

Question: How did the “activity, negative = inhibition” value turn out when O=C(CN1CCC(C(=O)c2ccc(F)cc2)CC1)Nc1ccccc1Cl was run?
Answer: inactive: 4.07% [at 102 µM]

Question: Which Potency does the source give for Cc1ccc(NC(=S)NCCc2ccccc2)nc1 here?
Answer: active: 1.58 µM

Question: Cc1ccc(C2(C(F)(F)F)NC(=O)N3CCN=C3S2)cc1 (stereo unspecified) was tested. Which Potency did it give?
Answer: inconclusive: 28.2 µM [inhibitor, full curve, poor fit]

Question: With CCN(CC)S(=O)(=O)c1ccc(NC(=O)C2CCCN(C(=O)c3ccc(Cl)cc3)C2)cc1 (stereo unspecified) as the molecule, how does the “activity, negative = inhibition” value read?
Answer: inactive: 19.9%

Question: For CC(C)Cc1nnc(NC(=O)Cc2cccs2)s1, which Potency is on record?
Answer: active: 44.7 µM

Question: Which Potency does the source give for Cc1sc(CO)c(Sc2ccccc2)c1C(=O)O here?
Answer: inconclusive: 79.4 µM [inhibitor, single point]

Question: How did the “activity, negative = inhibition” value turn out when CSCCC(NC(=O)c1ccccc1Br)C(=O)N1CCCCCCC1 (stereo unspecified) was run?
Answer: inactive: 13.3% [at 102 µM]

Question: O=C(Nc1cccc(Cl)c1)C(Cc1ccccc1)n1cccc1 (stereo unspecified) was tested. Which “activity, negative = inhibition” value did it give?
Answer: inactive: -1.52%

Question: How did the Potency turn out when O=C(O)CSc1ccc2ccccc2n1 was run?
Answer: inconclusive: 79.4 µM [inhibitor, partial curve]

Question: Which “activity, negative = inhibition” value does the source give for Cc1cc(C)c2nc(SCC(=O)NCC3CCCO3)c(C#N)cc2c1 (stereo unspecified) here?
Answer: inactive: -29.4% [at 102 µM]

Question: With CSc1ccccc1C(=O)Nc1ncn[nH]1 as the molecule, how does the Potency read?
Answer: active: 1.58 µM

Question: COc1ccc2c(c1)c(=O)oc1cc(OCC(=O)NC3CC3)ccc12 was tested. Which Potency did it give?
Answer: inconclusive: 17.8 µM [inhibitor, partial curve]

Question: For O=S(=O)(c1cccc2cnccc12)N1CCCNCC1, which Potency is on record?
Answer: inconclusive: 89.1 µM [inhibitor, single point]

Question: COc1cc(C2C(C(=O)c3cccs3)=C(O)C(=O)N2CCN2CCOCC2)cc(OC)c1OC (stereo unspecified) was tested. Which Potency did it give?
Answer: inconclusive: 56.2 µM [inhibitor, partial curve, poor fit]

Question: Cc1ccc(N2C(=O)CC(NNC(=O)Cc3ccc(F)cc3)C2=O)cc1Cl (stereo unspecified) was tested. Which activity, negative = inhibition did it give?
Answer: inactive: -3.89% [at 12.7 µM]

Question: Brc1ccc2c(c1)C(c1cccnc1)=NNC(c1cccs1)=N2 was tested. Which Potency did it give?
Answer: inconclusive: 28.2 µM [inhibitor, single point]

Question: How did the Potency turn out when O=C(c1ccco1)N1CCN(S(=O)(=O)Cc2ccccc2Cl)CC1 was run?
Answer: inconclusive: 70.8 µM [inhibitor, partial curve, poor fit]

Question: With O=C(N/N=C/c1ccoc1)c1ccc([N+](=O)[O-])cc1 as the molecule, how does the Potency read?
Answer: inconclusive: 28.2 µM [inhibitor, partial curve, poor fit]

Question: For CCC1CCCCN1S(=O)(=O)c1ccccc1[N+](=O)[O-] (stereo unspecified), which “activity, negative = inhibition” value is on record?
Answer: inactive: -34.1% [at 102 µM]

Question: How did the “activity, negative = inhibition” value turn out when CCN1C(=O)C(NC(C)=O)c2cc(Br)ccc21 (stereo unspecified) was run?
Answer: inactive: -22%

Question: OC(CNCc1ccccc1)COCc1ccc(Cl)cc1 (stereo unspecified) was tested. Which Potency did it give?
Answer: active: 10 µM

Question: How did the Potency turn out when CCOC(=O)c1c(NC(=S)NC)sc2c1CC(C)(C)SC2 was run?
Answer: inconclusive: 7.94 µM [inhibitor, full curve, poor fit]

Question: For CCOc1cc(/C=C2/SC(=S)NC2=O)ccc1OC(=O)c1ccco1, which Potency is on record?
Answer: active: 12.6 µM

Question: How did the Potency turn out when CNS(=O)(=O)c1cccc(C(=O)OCC(=O)c2ccc[nH]2)c1 was run?
Answer: inconclusive: 0.631 µM [inhibitor, single point]

Question: With CCOC(=O)c1ccc2c(c1)sc1nc(-c3ccc(OCC)cc3)cn12 as the molecule, how does the “activity, negative = inhibition” value read?
Answer: inactive: 13.1%

Question: How did the Potency turn out when CCC1(c2ccccc2)NC(=S)N(c2ccc(C)c(C)c2)N1 (stereo unspecified) was run?
Answer: active: 7.94 µM

Question: Cc1c(OCC(=O)NC2CCN(Cc3ccccc3)CC2)ccc2c3c(c(=O)oc12)CCC3 was tested. Which “activity, negative = inhibition” value did it give?
Answer: inactive: -3.98% [at 102 µM]

Question: For CCn1c(=O)ccc2cc([N+](=O)[O-])ccc21, which Potency is on record?
Answer: inconclusive: 56.2 µM [inhibitor, partial curve, poor fit]

Question: How did the activity, negative = inhibition turn out when O=C(N/N=C/C=C/c1cccc([N+](=O)[O-])c1)C(O)c1ccccc1 (stereo unspecified) was run?
Answer: inactive: 20% [at 0.501 µM]

Question: Which “activity, negative = inhibition” value does the source give for CC1(C)c2[nH]c3ccccc3c2C[C@H]2C(=O)N(CCCO)CC(=O)N21 here?
Answer: inactive: 6.04% [at 102 µM]

Question: For CC(C)CC(=O)N1CCN(Cc2ccc(Br)cc2)CC1, which Potency is on record?
Answer: active: 31.6 µM

Question: For Cc1nc2ccccc2n1CC(O)Cn1c2ccccc2c2ccccc21 (stereo unspecified), which Potency is on record?
Answer: inconclusive: 22.4 µM [inhibitor, single point]

Question: Which Potency does the source give for CCCN(C#N)c1nc(NCC)nc(NC(C)C)n1 here?
Answer: inconclusive: 89.1 µM [inhibitor, single point]

Question: O=C(c1ccco1)N1CCC2(CCCN(c3ccccc3)C2)CC1 was tested. Which activity, negative = inhibition did it give?
Answer: inactive: -22.1% [at 12.7 µM]

Question: Which “activity, negative = inhibition” value does the source give for O=C(C1CCCCC1)N1CCC(O)(c2ccc(Cl)cc2)CC1 here?
Answer: inactive: -36.1% [at 102 µM]
